In PubChem BioAssay AID1963576 (National Center for Advancing Translational Sciences (NCATS), 2024):
Screen size: about 46,000 compounds; about 60 (0.1%) were called active. Roughly 3% stayed inconclusive and do not appear here. The call rests on the fitted dose curve; in most records, active means well fitted inhibition curve with a large enough effect; inconclusive means small, poorly fitted or top-dose-only effect; inactive means no such curve, though single readings can be large or run the other way. The list shows a part of the results.

Test: Primary qHTS assay for Inhibitors of ovarian cancer metastasis using an organotypic tumor microenvironment (TME) model. Further: nearly all actives have a fitted effect of over 65% in size.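 On activity change, negative = inhibition: plate controls were DMSO wells for no effect and tomatine positive control wells for full effect.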
Conditions: SKOV3ip1-GFP adhesion/invasion on 3D omental model, fluorescence; series mostly up to 45.8 µM; activity change, negative = inhibition: at the top concentration
Procedure, shortened: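 Adhesion/invasion was scored as fixed GFP-labeled SKOV3ip1 cell counts (488/509 nm), normalized to DMSO and tomatine controls. Cancer cells in serum-free medium, with four compound doses (0.36-46 umol/L), sat 2 hr at RT then 16 hr at 37 C on a 48 hr fibroblast/mesothelial/ECM culture.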

SMILES	activity change, negative = inhibition	outcome
Cc1cc(O)c(C(c2ccc(Cl)cc2)N2CCN(c3ccccc3)CC2)c(=O)n1Cc1ccco1 (stereo not drawn)	inactive: 15.5%	
Fc1ccc(-c2cn3cc(Cc4ccccc4Cl)sc3n2)cc1	inactive: -29.9%	
COc1ccc(CCn2c(=O)[nH]c3cc(C(=O)N4CCN(c5ccccc5)CC4)ccc3c2=O)cc1OC	inactive: -14.4%	
COCCNC(=O)CCCN1C(=O)CCn2nc(-c3cccn3C)cc21	inactive: 4.08%	
Cc1ccc(CCNC(=O)c2ccc(CS(=O)(=O)c3ccc(Cl)cc3)o2)cc1		inactive
CCOc1ccccc1NC(=O)n1ncc2cc(Cl)ccc21	inactive: -2.96%	
COC(=O)c1ccccc1NC(=O)CCCN1C(=O)C(c2ccccc2)Oc2cccnc21 (stereo not drawn)		inactive
O=C(c1ccccc1F)N1CCC(c2nc3c(nnn3Cc3cccc(F)c3)c(=O)[nH]2)CC1	inactive: -2.01%	
Cc1oc(-c2ccc(C(=O)NC(C)c3ccccc3)cc2)nc1CS(=O)(=O)c1ccccc1 (stereo not drawn)	inactive: -7.97%	
COc1ccc(NC(=O)Cn2c(=O)oc3cc(S(=O)(=O)N4CCCCC4C)ccc32)cc1 (stereo not drawn)		inactive
COCCNC(=O)CCCn1c(=O)[nH]c2ccsc2c1=O		inactive
Brc1ccc(-c2noc(-c3ccccc3)n2)o1	inactive: 0.955%	
CCOc1ccccc1NC(=O)CSc1ccc2nnc(CCNS(=O)(=O)c3ccccc3)n2n1	inactive: 7.91%	
COc1ccc(C)cc1NS(=O)(=O)c1c(C)nc2sc(C)cn2c1=O	inactive: 18.5%	
Cc1ccc(Nc2ncnc3c2cnn3-c2ccc(C)cc2)cc1	inactive: 1.93%	
COc1ccc(OCC(=O)N(Cc2cccc(OC)c2)C2CCS(=O)(=O)C2)cc1 (stereo not drawn)	inactive: -11.3%	
COc1cc(OC)c(NC(=O)c2cc(C(C)=O)n3ccccc23)cc1Cl	inactive: -4.11%	
CN(C)CCNC(=O)CCCn1c(=O)c2cccn2c2ccccc21		inactive
CCOc1ccc(NS(=O)(=O)c2ccc3[nH]cc(C(=O)NCCOC)c(=O)c3c2)cc1	inactive: 14.2%	
CN(C)CCN(Cc1ccccc1)S(=O)(=O)c1ccc(-c2cc(C(F)(F)F)on2)s1	inactive: -18.6%	
COc1ccccc1NC(=O)C1=C(C)Nc2nc(SCC(=O)c3ccc(C)cc3)nn2C1c1ccccc1C (stereo not drawn)	inactive: -1.55%	
COc1ccc(-n2cc(C(=O)N(C)c3cc(C)ccc3OC)c3ccccc3c2=O)cc1	inactive: 8.65%	
CSCCC(NS(=O)(=O)c1ccc2c(c1)oc(=O)n2C)C(=O)NCc1ccc(F)cc1 (stereo not drawn)		inactive
Cc1nn(Cc2noc(C(=O)NCc3cccc(F)c3)n2)c(C)c1Br		inactive

SMILES	activity change, negative = inhibition	outcome
COc1ccc(NC(=O)c2sc3nc(C)c(C(=O)Nc4ccc(C)cc4C)c(-c4ccccc4Cl)c3c2N)cc1	inactive: 3.76%	
Cc1ccc(Cl)cc1N(C)C(=O)c1noc2c1CCCCC2		inactive
CCC(=O)N1CCc2cc(CNS(=O)(=O)c3c(C)cc(C)cc3C)ccc21	inactive: -3.29%	
Cc1ccc(Cn2nnc3sc4c(c3c2=O)CCC(C)C4)cc1 (stereo not drawn)	inactive: -6.47%	
O=C(Cn1nc(-c2ccccc2)c2cnc3ccccc3c21)Nc1ccccc1	inactive: 0.314%	
Cc1ccc(C)c(NC(=O)CN2C(=O)C3(SCC(=O)N3c3ccc(C)c(C)c3)c3ccccc32)c1 (stereo not drawn)	inactive: -19.6%	
CC1=C(C(=O)Nc2cccnc2)C(c2ccccc2)n2nc(SCc3ccccc3)nc2N1 (stereo not drawn)		inactive
COC(=O)c1ccccc1NC(=O)c1cc(-c2ccc(Cl)cc2)on1	inactive: 3.13%	
CCCCOc1ccc(C(=O)Nc2ccc(S(=O)(=O)Nc3nc(C)cc(C)n3)cc2)cc1	inactive: 7.29%	
Cc1nnc(NCc2ccc(Cl)cc2)c2c1nnn2Cc1ccc(F)cc1	inactive: 2.77%	
Cc1ccc2nc(-c3ccc(Cl)c(NC(=O)c4ccc5c(c4)OCCO5)c3)oc2c1		inactive
CCc1ccc2ncc(S(=O)(=O)c3ccc(Cl)cc3)c(N3CCN(CC)CC3)c2c1	inactive: -1.12%	
Cc1nc2ccccc2n1CCc1nc2c3ccccc3nc(SCC(=O)Nc3cccc(C(F)(F)F)c3)n2n1	inactive: 7.46%	
Cc1ccccc1NC(=O)CSc1nc(-c2ccc(F)cc2)nc2c1Cc1ccccc1O2	inactive: 3.01%	
O=C(CCC1N=C2c3ccccc3N=C(SCc3ccccc3Cl)N2C1=O)NCCc1ccccc1 (stereo not drawn)	inactive: 4.05%	
Cn1c(=O)n(-c2ccc3c(c2)OCO3)c2nc(-c3ccc(Cl)cc3)nc(C(N)=O)c21		inactive
Cc1cc(C)cc(-n2c(SCC(=O)N3CCCC3)nc3c([nH]c4ccccc43)c2=O)c1	inactive: -4.3%	
COc1ccc2c(Sc3ccccc3)c(C(=O)NCC(C)c3ccccc3)[nH]c2c1 (stereo not drawn)	inactive: 4.46%	
CCCCOc1ccc(C(=O)N2CC(=O)Nc3ccc(Br)cc3C2c2ccc(F)cc2)cc1 (stereo not drawn)	inactive: 3.88%	
COc1ccc(Br)cc1Cn1nnc(C(=O)Nc2ccc(C)cc2C)c1N	inactive: -17.5%	
Cc1cc(C)nc(NS(=O)(=O)c2ccc(NC(=O)c3ccccc3O)cc2)n1	inactive: 9.62%	
CCOc1ccc(N2CC(c3nc4ccccc4n3CCCOc3ccccc3OC)CC2=O)cc1 (stereo not drawn)	inactive: -29.8%	
CCc1nnc(SCc2cccc(F)c2)c2cc3sc(C)cc3n12	inactive: 7.21%	
CCS(=O)(=O)N1CC(=O)N(c2ccc(Cl)cc2C)C(C)(C(=O)NC2CCCCCC2)C1 (stereo not drawn)		inactive
